From publication PMC4336329 (PLoS ONE, 2015)
Among all 310,000 compounds or so, about 2,200 (0.71%) showed an effect of 50% or more. The effect is printed as a negative number. This is one part of the list.

Each compound was assayed against human ether-à-go-go-related gene (hERG) potassium channel (human, UniProt Q12809) (assay: primary screen, population patch clamp on CHO cells stably expressing hERG).
Chain of human ether-à-go-go-related gene (hERG) potassium channel (Q12809 whole entry, looked up): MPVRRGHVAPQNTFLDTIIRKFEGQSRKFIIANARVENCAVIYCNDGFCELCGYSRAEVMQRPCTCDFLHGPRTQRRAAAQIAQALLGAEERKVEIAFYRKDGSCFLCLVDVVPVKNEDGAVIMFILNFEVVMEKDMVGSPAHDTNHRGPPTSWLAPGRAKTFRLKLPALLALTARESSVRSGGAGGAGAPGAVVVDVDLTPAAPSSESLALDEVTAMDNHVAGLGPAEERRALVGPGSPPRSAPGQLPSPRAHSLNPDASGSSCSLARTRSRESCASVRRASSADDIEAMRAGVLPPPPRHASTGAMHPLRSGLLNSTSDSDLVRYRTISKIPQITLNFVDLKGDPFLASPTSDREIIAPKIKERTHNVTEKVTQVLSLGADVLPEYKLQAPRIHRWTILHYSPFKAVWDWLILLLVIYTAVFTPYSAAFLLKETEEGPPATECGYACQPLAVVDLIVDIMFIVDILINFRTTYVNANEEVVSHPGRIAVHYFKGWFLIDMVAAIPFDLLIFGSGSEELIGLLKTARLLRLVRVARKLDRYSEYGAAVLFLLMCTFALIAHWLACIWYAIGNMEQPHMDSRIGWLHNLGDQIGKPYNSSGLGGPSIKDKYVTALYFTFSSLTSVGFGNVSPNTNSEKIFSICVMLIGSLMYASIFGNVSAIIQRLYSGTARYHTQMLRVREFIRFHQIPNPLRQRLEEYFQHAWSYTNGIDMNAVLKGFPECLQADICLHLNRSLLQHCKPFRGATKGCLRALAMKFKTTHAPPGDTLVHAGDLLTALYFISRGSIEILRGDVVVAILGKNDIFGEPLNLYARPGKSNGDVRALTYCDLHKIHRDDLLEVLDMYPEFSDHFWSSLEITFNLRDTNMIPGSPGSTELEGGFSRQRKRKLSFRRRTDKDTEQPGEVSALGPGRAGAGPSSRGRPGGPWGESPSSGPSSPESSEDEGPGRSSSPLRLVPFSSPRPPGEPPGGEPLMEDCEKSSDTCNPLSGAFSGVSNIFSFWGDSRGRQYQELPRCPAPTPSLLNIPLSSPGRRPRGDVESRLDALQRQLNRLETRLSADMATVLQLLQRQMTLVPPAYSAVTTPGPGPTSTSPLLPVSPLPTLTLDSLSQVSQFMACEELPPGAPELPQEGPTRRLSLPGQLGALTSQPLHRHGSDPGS

SMILES	hERG current change (%, negative = inhibition) at 1uM
COc1ccc(C(C)=O)cc1CSc1nnc(-c2ccc(Cl)cc2)n1-c1ccccc1	-2.21%
OCCCNc1cc(-c2ccnc(Nc3cccc(Cl)c3)n2)ccn1	11.8%
O=[N+]([O-])c1ccc2nonc2c1Nc1cccc(F)c1	9.76%
CCN(CC)C(=O)C(=O)c1cn(CC(=O)NCC2CCCO2)c2ccccc12 (stereo not shown)	9.44%
Cc1oc2c(c(C)cc3oc(=O)c(CC(=O)NCCC(=O)O)c(C)c32)c1C	12.5%
CCC(=O)Nc1ccc(N2CCN(Cc3ccccc3F)CC2)cc1	-0.732%
COc1ccc(C2(C(=O)NCCc3ccccc3)CCCC2)cc1	7.27%
CCC(=NCCO)c1c(O)n(-c2ccccc2)c(=O)[nH]c1=O	14.8%
O=C(COC(=O)CSc1ccc(F)cc1)NCCCc1ccccc1	12.6%
Cc1ccc(NC(=O)c2c(C)nn(-c3ccccc3)c2Cl)cc1	0.559%
O=C(c1ccc2snnc2c1)N1CCCC1	12.4%
COc1ccc(C(=O)Nc2ccncc2)cc1S(=O)(=O)N1CCOCC1	11.9%
OC(C#CCN1CCCC1)(c1ccccc1)c1ccccc1	-6.28%
COC(=O)CC1COc2ccccc2N1C(=O)c1ccc(Br)cc1 (stereo not shown)	4.26%
O=C1COc2ccc(C(=O)COC(=O)c3ccc4ccccc4n3)cc2N1	12.8%
Cc1ccc(C)c(NC(=O)CN(C)C(=O)c2cc3c(s2)CCCCC3)c1	1.51%
O=C(Nc1nc(=O)n(C(=O)c2cccc(C(F)(F)F)c2)s1)c1ccccc1	8.83%
CC(C)=C1C2CC2C2C(C(=O)O)C12 (stereo not shown)	12.1%
CCC(C)NC(=O)c1c(N)n(/N=C/c2ccccn2)c2nc3ccccc3nc12 (stereo not shown)	5.12%
O=C1CC(NNC(=O)c2ccccc2)C(=O)N1 (stereo not shown)	13.8%
CCOc1cccc(C(=O)Nc2ccc(N3CCCC3)cc2)c1	11.3%
COCCC(=O)N1CCc2c([nH]c3ccccc23)C1C(C)(C)C (stereo not shown)	3.37%
N#Cc1ccc(OCC(=O)Nc2cc(S(=O)(=O)N3CCOCC3)ccc2N2CCOCC2)cc1	0.376%

SMILES	hERG current change (%, negative = inhibition) at 1uM
COc1ccc(-n2c(N)c(C(=O)NCC3CCCO3)sc2=S)cc1 (stereo not shown)	-11.1%
C/C(=C\C(=O)C(F)(F)F)Nc1ccc(C(F)(F)F)cc1	10.6%
CC(C)(C)SCCNC(=O)CN(c1ccccc1)S(=O)(=O)c1ccc(F)cc1	5.94%
CC(C)n1ncc(C(N)=O)c1N	13.1%
Cc1nc2ccccc2c2c1C(=O)N(C1CCCCCCC1)C2=O	-2.74%
O=C(NCC1CCCO1)c1cc(C(=O)c2ccc(Cl)cc2Cl)c[nH]1 (stereo not shown)	9.06%
COCCCNC(=O)Cc1ccc(S(=O)(=O)N2CCOCC2)s1	9.12%
CCOc1ccc(S(=O)(=O)Nc2cccnc2)cc1	17.8%
N#Cc1ccsc1NC(=O)COC(=O)c1cc(Br)ccc1O	8.67%
CCC(C)NCC(=O)Nc1ccc(-c2nc3cc(NC(=O)CNC(C)CC)ccc3o2)cc1 (stereo not shown)	5.15%
Cc1c(N(C)S(=O)(=O)c2cc(C(=O)NCC3CCCO3)ccc2Cl)c(=O)n(-c2ccccc2)n1C (stereo not shown)	4.94%
CCOC(=O)NC(=O)C(=CNc1cccc(OC)c1)C(=O)NC(=O)OCC	15.1%
Clc1ccccc1-c1nnc2sc(CCc3ccccc3)nn12	9.95%
COc1cccc(COC(=O)CSCC(=O)Nc2cccc(C)c2)c1OC	10.1%
COc1ccc(/C=N/NC(=O)c2ccc3ccccc3c2)cc1OS(=O)(=O)c1ccc(NC(C)=O)cc1	-1.89%
Cc1cc(C)n(C(=O)c2ccc(NC(=O)C3COc4ccccc4O3)cc2)n1 (stereo not shown)	0.869%
COc1ccc(OCCC(=O)c2ccc(OC)cc2)cc1	4.68%
CCN1CCC(C(N)=O)CC1	6.67%
O=C(NCCOc1ccccc1)C1CCC(=O)N(CCCN2CCCC2=O)C1 (stereo not shown)	7.28%
O=C(CSc1nnc(-c2n[nH]c3ccccc23)n1-c1ccccc1)Nc1ccccc1Cl	6.69%
O=C(Nc1cccc(NC(=O)c2ccc(Cl)cc2)n1)c1ccc(Cl)cc1	14.3%
C=CCNC(=O)/C(C#N)=C/c1cc(Br)ccc1OC	14.8%
COc1ccccc1CNC(=O)C1CCN(S(=O)(=O)c2ccc3c(c2)C(C)(C)C(=O)N3C)CC1	7.82%
